Experimental data from paper PMC10621992.
These are yes or no findings as the source states them, for the method shown. Binding seen in cells or lysates may run through a third protein. Some results given as binding are weak or reduced against the parent protein; the word gives no strength.

The chains behind the UniProt entries cited, without tags or fusion partners.
UniProt P51451: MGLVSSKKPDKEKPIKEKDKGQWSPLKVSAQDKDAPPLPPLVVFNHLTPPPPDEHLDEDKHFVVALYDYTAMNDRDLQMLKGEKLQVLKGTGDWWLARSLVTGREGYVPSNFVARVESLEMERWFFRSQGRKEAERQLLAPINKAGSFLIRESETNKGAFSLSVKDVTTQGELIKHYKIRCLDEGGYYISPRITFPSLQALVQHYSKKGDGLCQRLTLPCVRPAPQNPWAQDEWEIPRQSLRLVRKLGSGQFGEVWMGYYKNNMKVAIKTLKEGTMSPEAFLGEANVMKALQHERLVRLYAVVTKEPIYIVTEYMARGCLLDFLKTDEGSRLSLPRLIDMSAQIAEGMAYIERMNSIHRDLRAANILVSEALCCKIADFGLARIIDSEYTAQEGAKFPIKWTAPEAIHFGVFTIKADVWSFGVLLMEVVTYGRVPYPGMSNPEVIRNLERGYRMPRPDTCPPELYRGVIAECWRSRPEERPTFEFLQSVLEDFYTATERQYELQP
UniProt Q14653: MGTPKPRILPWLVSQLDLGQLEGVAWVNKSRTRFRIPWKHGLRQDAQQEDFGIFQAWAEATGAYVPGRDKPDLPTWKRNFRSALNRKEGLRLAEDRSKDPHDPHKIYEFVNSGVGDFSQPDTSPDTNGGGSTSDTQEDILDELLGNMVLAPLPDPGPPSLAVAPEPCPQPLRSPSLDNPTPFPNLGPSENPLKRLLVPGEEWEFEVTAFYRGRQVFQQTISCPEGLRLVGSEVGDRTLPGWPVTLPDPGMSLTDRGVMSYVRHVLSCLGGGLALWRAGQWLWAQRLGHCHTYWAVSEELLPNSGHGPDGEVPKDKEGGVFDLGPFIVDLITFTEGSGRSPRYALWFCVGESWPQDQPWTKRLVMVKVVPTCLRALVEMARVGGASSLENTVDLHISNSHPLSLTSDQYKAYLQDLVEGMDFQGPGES
UniProt Q7Z434: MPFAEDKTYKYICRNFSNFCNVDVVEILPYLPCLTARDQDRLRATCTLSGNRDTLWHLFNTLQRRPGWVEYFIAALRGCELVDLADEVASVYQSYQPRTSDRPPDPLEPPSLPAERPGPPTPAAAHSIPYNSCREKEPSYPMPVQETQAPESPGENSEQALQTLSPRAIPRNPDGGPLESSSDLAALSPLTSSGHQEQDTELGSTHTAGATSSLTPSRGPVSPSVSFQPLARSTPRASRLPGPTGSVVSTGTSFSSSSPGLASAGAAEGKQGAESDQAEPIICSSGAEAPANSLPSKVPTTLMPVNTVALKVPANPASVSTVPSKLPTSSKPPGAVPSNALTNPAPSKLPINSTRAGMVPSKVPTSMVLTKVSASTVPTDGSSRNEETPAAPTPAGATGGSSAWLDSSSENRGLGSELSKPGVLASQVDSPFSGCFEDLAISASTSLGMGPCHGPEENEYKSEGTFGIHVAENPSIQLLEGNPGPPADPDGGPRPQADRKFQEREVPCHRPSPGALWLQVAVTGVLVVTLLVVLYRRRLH

Key:
Assay in all cases: co-IP
[1] = target: BLK-Flag, stably expressed in Jurkat cells (human) (UniProt P51451)
[2] = target: T1, TBK1, endogenous in U87MG cells (human (endogenous in U87MG)) (UniProt Q9UHD2)
T1 sequence: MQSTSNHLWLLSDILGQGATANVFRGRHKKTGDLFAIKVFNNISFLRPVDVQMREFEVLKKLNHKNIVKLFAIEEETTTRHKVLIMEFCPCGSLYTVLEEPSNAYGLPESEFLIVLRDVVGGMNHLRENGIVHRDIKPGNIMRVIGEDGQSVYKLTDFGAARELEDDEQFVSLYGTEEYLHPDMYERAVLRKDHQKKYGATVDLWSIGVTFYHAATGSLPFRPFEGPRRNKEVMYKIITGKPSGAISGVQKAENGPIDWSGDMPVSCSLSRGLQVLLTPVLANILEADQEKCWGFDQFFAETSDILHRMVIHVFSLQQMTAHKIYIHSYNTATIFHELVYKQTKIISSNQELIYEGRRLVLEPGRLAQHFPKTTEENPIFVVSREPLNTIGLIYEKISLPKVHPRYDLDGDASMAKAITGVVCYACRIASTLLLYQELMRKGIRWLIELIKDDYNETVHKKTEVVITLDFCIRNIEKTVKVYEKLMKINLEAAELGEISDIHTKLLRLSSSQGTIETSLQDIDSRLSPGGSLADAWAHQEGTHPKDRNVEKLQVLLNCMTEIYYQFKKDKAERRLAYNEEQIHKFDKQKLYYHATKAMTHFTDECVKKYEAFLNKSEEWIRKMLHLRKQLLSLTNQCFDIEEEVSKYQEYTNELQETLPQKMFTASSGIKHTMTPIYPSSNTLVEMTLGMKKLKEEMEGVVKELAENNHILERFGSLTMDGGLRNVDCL

[3] = target: BLK, overexpressed in HEK293 cells (human) (UniProt P51451)
[4] = target: T2, TBK1, overexpressed in HEK293 cells (UniProt Q9UHD2)
T2 sequence: T1 sequence

With “IRF3, endogenous in Jurkat cells (from UniProt Q14653 1-427)” the binding [1] was “binds”.

For “IRF3, endogenous in U87MG cells (from UniProt Q14653 1-427)”, the binding [2] was “binds”.

“IRF3, overexpressed in HEK293 cells (from UniProt Q14653 1-427)” was tested, and the binding [3] was “binds” and the binding [4] was “binds”.

In the case of “VISA (virus-induced-signaling adapter), overexpressed in HEK293 cells (from UniProt Q7Z434 1-540)”, the binding [3] is reported as “no binding”.
